The full ranking holds about 33,000 sequences; the median of “E-score (-0.5 to 0.5)” is about -0.054, and the highest 2% start at about 0.35. The list shows a part of the results.
biological target: T1, Stb5 (UniProt P38699); experiment: PBM E-score (8-mer binding enrichment) (E-score (-0.5 to 0.5)); higher = stronger / more preferred TF binding; most listed sequences are background and not binding sites; details: protein concentration: 200 nM; construct: GST-full length
T1 sequence: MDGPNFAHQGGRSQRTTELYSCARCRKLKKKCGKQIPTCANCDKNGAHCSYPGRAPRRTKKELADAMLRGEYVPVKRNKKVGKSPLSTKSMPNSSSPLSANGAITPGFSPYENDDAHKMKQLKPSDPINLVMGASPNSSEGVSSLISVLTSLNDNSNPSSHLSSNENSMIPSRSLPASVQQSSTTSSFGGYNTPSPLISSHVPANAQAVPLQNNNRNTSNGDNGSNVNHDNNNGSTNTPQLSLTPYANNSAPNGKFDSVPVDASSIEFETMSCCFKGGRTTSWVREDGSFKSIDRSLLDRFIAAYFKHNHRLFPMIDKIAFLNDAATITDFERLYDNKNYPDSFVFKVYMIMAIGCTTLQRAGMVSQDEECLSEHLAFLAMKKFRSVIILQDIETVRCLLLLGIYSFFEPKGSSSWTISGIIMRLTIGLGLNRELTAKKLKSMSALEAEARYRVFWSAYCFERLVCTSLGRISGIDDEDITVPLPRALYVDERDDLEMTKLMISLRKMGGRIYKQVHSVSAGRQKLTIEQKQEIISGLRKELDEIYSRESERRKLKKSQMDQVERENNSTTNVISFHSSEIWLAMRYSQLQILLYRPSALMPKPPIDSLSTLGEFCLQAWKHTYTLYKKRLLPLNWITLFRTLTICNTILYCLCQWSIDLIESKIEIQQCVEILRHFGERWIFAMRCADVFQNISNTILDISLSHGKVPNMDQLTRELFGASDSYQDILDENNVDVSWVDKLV
Summary of the method: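 E-scores (a modified Wilcoxon-Mann-Whitney statistic) were assigned by the Universal PBM Analysis Suite to every ungapped eight-base word pooled with its reverse complement. The input came from universal all-10-mer Agilent arrays made double-stranded by primer extension and probed with GST-tagged yeast transcription factors at about 100-200 nM. Fluorescent anti-GST detected bound protein, and masliner normalised the scans.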

Going from ACTTGACT to CGCTCCTA, the “PBM E-score” value rises from -0.115 to 0.186.

Going from ATCGCGTC to CAATATGC, the “PBM E-score” value falls from -0.0404 to -0.107.

Compared with AGGTTTTA, CCTAGAAA is lower in “PBM E-score” value: 0.0721 for the first, 0.00815 for the second.

Going from AGCAAAAG to AAGTGTAT, the “PBM E-score” value falls from -0.24 to -0.268.

Going from CTCGATAC to CAGCGGCG, the “PBM E-score” value rises from -0.114 to 0.326.

First: CCTATCAA
Second: CGCAGGAA
The “PBM E-score” value of the first is lower: -0.0484 for the first, 0.0192 for the second.

Going from TACTTAAA to AACGCTGA, the “PBM E-score” value falls from 0.0015 to -0.0905.

Going from TGTAAAAA to CAGGATGA, the “PBM E-score” value falls from -0.194 to -0.267.

Going from AAATTGCC to TAAAGTTA, the “PBM E-score” value falls from 0.256 to -0.114.

First: GAGGCTCC
Second: CCGCGACC
The “PBM E-score” value of the first is lower: -0.0299 for the first, 0.244 for the second.

Compared with CCCGGTCG, ATGGCTCC is lower in “PBM E-score” value: 0.269 for the first, 0.0356 for the second.

First: AAACGTTC
Second: AGCTGAGA
The “PBM E-score” value of the first is higher: -0.135 for the first, -0.19 for the second.

Compared with AGCTAGAA, GGACGACC is higher in “PBM E-score” value: -0.218 for the first, -0.0946 for the second.

First: CAGCAACG
Second: CAAATGAA
The “PBM E-score” value of the first is higher: 0.0141 for the first, -0.0783 for the second.

Compared with TCCCCCCA, CCCGCAGA is higher in “PBM E-score” value: -0.331 for the first, 0.251 for the second.

Going from GCCTTGAA to AATCCTAG, the “PBM E-score” value rises from -0.261 to -0.0194.

First: ATGCGAGG
Second: ATGCGATA
The “PBM E-score” value of the first is lower: -0.0963 for the first, 0.093 for the second.

First: GCGGTTTA
Second: AAAACCCC
The “PBM E-score” value of the first is lower: 0.139 for the first, 0.355 for the second.

Compared with TCTACACA, AAGTTCCA is higher in “PBM E-score” value: -0.196 for the first, -0.172 for the second.

First: ATAGTTTG
Second: CAAGGGCC
The “PBM E-score” value of the first is lower: -0.137 for the first, 0.0868 for the second.

Compared with AGCCACGC, CCGAGTCA is higher in “PBM E-score” value: -0.239 for the first, -0.103 for the second.

Compared with TACCCGGA, GATAAAAC is higher in “PBM E-score” value: 0.21 for the first, 0.261 for the second.

Going from CCAATGGC to AGTCAGCC, the “PBM E-score” value falls from -0.0094 to -0.115.

First: CACTAGGC
Second: AGGAGTGG
The “PBM E-score” value of the first is higher: 0.0595 for the first, -0.259 for the second.

First: CACCAAAA
Second: TAAGGGCA
The “PBM E-score” value of the first is higher: 0.0886 for the first, -0.156 for the second.

Compared with CAATCATA, ATCGGTAG is higher in “PBM E-score” value: -0.0755 for the first, 0.237 for the second.

Going from ACCAGGGC to ATTCAAGC, the “PBM E-score” value rises from -0.196 to -0.0725.

Going from ACTACGGA to AACACTGC, the “PBM E-score” value falls from 0.0755 to -0.157.

Compared with TCTGGTCA, ATAAAGAA is higher in “PBM E-score” value: -0.187 for the first, -0.0875 for the second.

First: ACTCCGAA
Second: AAAAGGTA
The “PBM E-score” value of the first is higher: 0.328 for the first, -0.0845 for the second.

Compared with ACTATTAG, CATGTAAA is higher in “PBM E-score” value: -0.0833 for the first, -0.0828 for the second.

Going from TAGTCATA to GGAAGACA, the “PBM E-score” value rises from -0.0911 to -0.0137.

Going from AATACCAT to CTACCCCA, the “PBM E-score” value falls from -0.0252 to -0.181.

Going from AGCAGCGG to ACCGCTCT, the “PBM E-score” value falls from 0.328 to 0.226.

Going from CTGATCTA to GTGCTGTA, the “PBM E-score” value rises from -0.0871 to 0.0244.

First: GAGACCGC
Second: CGCTTGTC
The “PBM E-score” value of the first is higher: 0.311 for the first, 0.0372 for the second.

Compared with CATGAATC, CCAGCATC is lower in “PBM E-score” value: -0.0557 for the first, -0.129 for the second.

Going from AATCGTAA to CAGCTTAA, the “PBM E-score” value falls from -0.0854 to -0.169.

First: GAACCTGA
Second: ACACGACT
The “PBM E-score” value of the first is higher: -0.126 for the first, -0.213 for the second.

Compared with GGACAACA, ACCTTCGA is lower in “PBM E-score” value: 0.0282 for the first, -0.146 for the second.

Compared with CATCGCAA, AGATACAT is higher in “PBM E-score” value: -0.228 for the first, -0.2 for the second.

Going from TCACGGGA to TGCGCCCA, the “PBM E-score” value falls from 0.177 to 0.0103.

Going from TGACAAAA to ACCCCTCA, the “PBM E-score” value rises from -0.159 to -0.0127.

Going from CCCGTCAG to AACTGTGA, the “PBM E-score” value falls from 0.201 to -0.19.

First: GGAAAGTA
Second: GGACACCC
The “PBM E-score” value of the first is higher: 0.00459 for the first, -0.0607 for the second.

Compared with AAATGAGT, ACGAAAGT is lower in “PBM E-score” value: 0.0915 for the first, -0.225 for the second.

Going from GCAAGCGC to AACCAATC, the “PBM E-score” value falls from 0.0311 to -0.105.

First: AAGCGAGC
Second: TGGACCCA
The “PBM E-score” value of the first is higher: 0.0454 for the first, -0.218 for the second.

First: ATACATAG
Second: CATGACAG
The “PBM E-score” value of the first is higher: -0.0217 for the first, -0.16 for the second.

Going from ATAAAACC to CTACGCGA, the “PBM E-score” value falls from 0.263 to -0.149.

Compared with AACTTCAA, ATAAGAGA is higher in “PBM E-score” value: -0.0353 for the first, -0.00231 for the second.

Compared with GTGAAATA, AGTATGGG is lower in “PBM E-score” value: 0.0339 for the first, -0.222 for the second.

Going from ATGTCAAG to AAATAGGC, the “PBM E-score” value rises from -0.0867 to 0.168.

First: CTAATAGC
Second: CCCAAATA
The “PBM E-score” value of the first is higher: -0.0179 for the first, -0.247 for the second.

First: GAAGACCC
Second: TAAATGGA
The “PBM E-score” value of the first is higher: 0.0303 for the first, -0.12 for the second.

Compared with AAGTGCGC, GTATAAAC is lower in “PBM E-score” value: 0.243 for the first, 0.0899 for the second.

Going from GAGGCGCA to CATAAGAA, the “PBM E-score” value falls from 0.00856 to -0.0277.

Going from GGAGCCTA to GCGAACCA, the “PBM E-score” value rises from -0.125 to -0.113.

Going from CCACGCAG to ATGAAAGG, the “PBM E-score” value rises from -0.184 to 0.0036.

Going from AAAGATGC to TAAGAAGA, the “PBM E-score” value rises from -0.214 to 0.0304.

First: ATACCGAT
Second: AATTATAA
The “PBM E-score” value of the first is higher: 0.353 for the first, 0.164 for the second.

Compared with TACCTTGA, CGACTCCC is higher in “PBM E-score” value: -0.0542 for the first, -0.0289 for the second.

Going from ACCATACT to TCGCGGCA, the “PBM E-score” value rises from -0.0978 to 0.267.

First: CACGACTG
Second: CCTACGGC
The “PBM E-score” value of the first is lower: -0.173 for the first, 0.109 for the second.

Compared with ATGCGATC, GATCATAA is higher in “PBM E-score” value: -0.0694 for the first, -0.0324 for the second.

Going from AGTCCTAC to AAACATAC, the “PBM E-score” value rises from -0.101 to -0.0269.

Going from CATTAATC to AGGACCAT, the “PBM E-score” value falls from 0.0248 to -0.106.

First: GGAGGTCA
Second: CGAGCTAC
The “PBM E-score” value of the first is higher: -0.114 for the first, -0.127 for the second.

Going from AGGTTGCG to TACGGTCA, the “PBM E-score” value rises from -0.21 to 0.0702.

Going from ACCGTTGC to ACCCATGA, the “PBM E-score” value falls from 0.204 to -0.023.

Compared with ACCCCCGA, GCATACCA is lower in “PBM E-score” value: 0.371 for the first, -0.0403 for the second.

Compared with TGGATCAA, ACGGATGC is higher in “PBM E-score” value: -0.108 for the first, 0.0495 for the second.

Compared with CCAAATCA, CACGGAGC is higher in “PBM E-score” value: -0.181 for the first, 0.276 for the second.

Going from GGACGTAA to GGGAACTA, the “PBM E-score” value falls from 0.179 to 0.172.

Going from GATGAAGA to GGCTCCAA, the “PBM E-score” value rises from -0.0236 to 0.0739.

Compared with AGAGTGGC, ATCGCATC is higher in “PBM E-score” value: -0.176 for the first, 0.106 for the second.

Compared with GAGCCCGC, AGTCTGTA is lower in “PBM E-score” value: 0.252 for the first, -0.249 for the second.

Compared with ATAGACCC, CAGTCGAC is lower in “PBM E-score” value: 0.262 for the first, -0.248 for the second.

Going from GCTCGTCA to GGCTAACC, the “PBM E-score” value falls from -0.108 to -0.128.

Going from CTAATGTA to GAAGAAAC, the “PBM E-score” value falls from -0.0418 to -0.132.

Compared with ACAGCTAC, AAACTAAA is lower in “PBM E-score” value: -0.1 for the first, -0.246 for the second.

Compared with GTAGGTAA, TAACCACA is lower in “PBM E-score” value: -0.113 for the first, -0.129 for the second.

Compared with ATAACGCA, TGTAAACA is lower in “PBM E-score” value: -0.0575 for the first, -0.126 for the second.

Compared with CATCGCTA, CCGGAAAG is higher in “PBM E-score” value: -0.254 for the first, -0.081 for the second.

Compared with CGGGAAAG, ACGGTCAT is higher in “PBM E-score” value: 0.141 for the first, 0.368 for the second.

Compared with CTCTGACC, CTTCTGTC is higher in “PBM E-score” value: -0.188 for the first, -0.115 for the second.

Source: the supplement of paper PMC3334620
